About 2,200 (0.71%) of roughly 310,000 compounds showed an effect of 50% or more. Effects have a minus sign here. The list shows a part of the results. Where a SMILES comes first, the peptide text is derived from it. The star is where a group is joined. Boc = CC(C)(C)OC(=O)*
What follows are compounds tested against human ether-à-go-go-related gene (hERG) potassium channel (human, UniProt Q12809) (assay: primary screen, population patch clamp on CHO cells stably expressing hERG).
Sequence of human ether-à-go-go-related gene (hERG) potassium channel (Q12809 whole entry, looked up): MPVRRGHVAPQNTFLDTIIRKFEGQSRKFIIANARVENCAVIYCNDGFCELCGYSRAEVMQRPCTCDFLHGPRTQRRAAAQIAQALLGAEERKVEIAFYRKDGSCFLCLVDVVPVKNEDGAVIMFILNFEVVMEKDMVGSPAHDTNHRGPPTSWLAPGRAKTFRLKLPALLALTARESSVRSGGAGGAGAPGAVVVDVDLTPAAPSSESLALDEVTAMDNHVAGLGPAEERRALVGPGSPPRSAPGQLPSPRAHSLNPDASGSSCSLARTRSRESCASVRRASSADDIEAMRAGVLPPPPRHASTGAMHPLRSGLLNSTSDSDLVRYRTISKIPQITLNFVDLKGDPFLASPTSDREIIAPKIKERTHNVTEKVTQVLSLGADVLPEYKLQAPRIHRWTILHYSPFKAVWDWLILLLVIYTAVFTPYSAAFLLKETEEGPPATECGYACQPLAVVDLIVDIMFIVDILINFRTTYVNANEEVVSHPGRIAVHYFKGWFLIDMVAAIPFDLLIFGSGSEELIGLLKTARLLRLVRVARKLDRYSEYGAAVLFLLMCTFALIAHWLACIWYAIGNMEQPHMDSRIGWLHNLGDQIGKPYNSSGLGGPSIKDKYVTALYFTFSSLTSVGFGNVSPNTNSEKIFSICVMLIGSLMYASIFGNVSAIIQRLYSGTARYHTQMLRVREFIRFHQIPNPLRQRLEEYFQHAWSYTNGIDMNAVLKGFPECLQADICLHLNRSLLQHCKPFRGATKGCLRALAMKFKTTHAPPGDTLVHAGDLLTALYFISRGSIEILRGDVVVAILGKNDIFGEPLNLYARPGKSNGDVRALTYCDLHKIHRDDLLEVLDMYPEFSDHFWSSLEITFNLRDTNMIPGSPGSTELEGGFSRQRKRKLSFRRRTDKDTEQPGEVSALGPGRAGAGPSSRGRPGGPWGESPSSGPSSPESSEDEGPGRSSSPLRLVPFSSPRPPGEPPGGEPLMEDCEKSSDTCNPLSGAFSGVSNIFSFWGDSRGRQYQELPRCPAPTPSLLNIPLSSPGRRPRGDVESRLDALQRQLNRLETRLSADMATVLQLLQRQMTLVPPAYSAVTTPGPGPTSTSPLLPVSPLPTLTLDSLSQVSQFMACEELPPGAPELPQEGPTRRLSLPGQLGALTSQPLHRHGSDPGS

SMILES	hERG current change (%, negative = inhibition) at 1uM [%]
Cl.OC1(c2ccccc2)CCN(Cc2ccccc2)C2CCCCC21 (centres unmarked)	0.966
Cc1csc(NC(=O)c2ccc(C)c(S(=O)(=O)N3CCCCC3)c2)n1	3.65
Cc1cc(NNC(=O)c2ccccc2)nc(NNC(=O)c2ccccc2)n1	1.23
CCN(CC)CCCNC(=S)N(Cc1ccco1)Cc1cc2cc3c(cc2[nH]c1=O)OCCO3	15.4
COc1ccc(C2=NNC(=Nc3cc(S(=O)(=O)N(C)C)ccc3C)SC2)c(OC)c1	10.4
O=C(CSc1nc2ccccc2[nH]1)Nc1ccc(F)cc1	6.9
Cc1nonc1C(=O)N/N=C/c1cccc(O)c1	-3.28
COc1cc(NC(=O)c2c(Cl)cnn2C)c(OC)cc1Cl	9.91
COC(=O)C1=C(c2c(C)noc2C)C[C@@H]2CC[C@H]1N2C(=O)NCc1ccco1	15.6
Cc1cccc(C(=O)OC(C)C(=O)NCC2CCCCC2)c1O (centres unmarked)	9.4
CC(C)C(=O)Nc1cc(C(F)(F)F)ccc1-n1ccnc1	7.39
Cc1[nH]c(-c2ccc(F)cc2)cc1C(=O)N1CCN(c2cccc(Cl)c2)CC1	8.23
O=C1NN(c2ccccc2)C(=O)/C1=C/c1coc2ccccc2c1=O	12.9
Cc1ccc(-c2nc3cnccn3c2Nc2ccc3c(c2)OCO3)cc1	12.3
COc1ccc(-c2nnn(CC(=O)NC(=O)NC3CCCCC3)n2)cc1OC	8.99
CCCC(=O)N1CCN(c2ccc(NC(=S)NC(=O)CC)cc2)CC1	2.6
CC(NC(=O)OC(C)(C)C)C(=O)N1CCCC1C(=O)NC(Cc1ccccc1)C(N)=O (stereo not drawn) (Boc-Ala-Pro-Phe-NH2; configuration not given here)	-8.3
Cc1ccccc1NC(=O)Cc1nnc(N)s1	9.3
Cc1cccc(C)c1NC1=NCCCS1	-9.2
O=[N+]([O-])c1ccc(OCc2cccc(COc3ccc([N+](=O)[O-])cc3)n2)cc1	14.2
COc1ccc(CCNC(=O)c2cc(=O)c3cc(C)ccc3o2)cc1	6.92
Nc1nc2nc(-c3ccc(OCc4ccccc4)cc3)cc(C(F)(F)F)n2n1	6.03

SMILES	hERG current change (%, negative = inhibition) at 1uM [%]
O=C(c1ccc(S(=O)(=O)N2CCOCC2)cc1)N1CCN(c2ccc(F)cc2)CC1	5.28
COCc1cc(C)nc(SCC(=O)c2ccc(O)c(O)c2)c1C#N	8.22
Cc1nc2ccc(NC(=O)N3CCOCC3)cc2nc1C	18.3
Cc1ccc(NC(=O)COc2ccc(C(=O)c3ccccc3)cc2)c(O)c1	4.33
Clc1ccc(NC2=NCCCCC2)cc1	5.53
CCOC(=O)c1cc(-c2ccc(C)cc2)n(CCC(=O)NCCCOC)c1C	5.73
Cc1ccc(CNC(=O)CSc2nnc3c(n2)[nH]c2ccccc23)cc1	14
COC(=O)c1ccccc1NC(=O)CSc1nc(N)cc(=O)[nH]1	9.66
CCOC(=O)CNC(=O)Cn1cnc2c(nnn2-c2ccc(C)cc2)c1=O	12.9
Cc1ccc(S(=O)(=O)c2c[nH]c3ccc(Cl)cc3c2=O)cc1	10.5
O=C(Nc1ccc2ccccc2c1)[C@@H]1C[C@H]1[C@@H](NP(=O)(c1ccccc1)c1ccccc1)c1ccccc1	18.7
COc1cc(C(=O)Nc2cc(C)nn2-c2ccccc2)cc(OC)c1OC	13.8
O=C(NCCN1C(=O)S/C(=C\c2cccnc2)C1=O)C1=NN(c2ccccc2)C(=O)CC1	13.6
Cc1ccnc(NC(=O)c2ccc3c(c2)NC(=O)C(C)S3)c1 (centres unmarked)	8.35
CCCc1nc2ccccc2n1CCc1ccccc1	2.22
C/C(Cn1nnc2ccccc21)=N\OC(=O)c1ccccc1C	-23.1
O=C(CSc1cccc2cccnc12)Nc1ccccc1F	3.23
CSCCC(C(=O)O)N1C(=O)c2ccc(C(=O)O)cc2C1=O (centres unmarked)	8.2
Cc1ccc(OCC(=O)n2cnnc2N)c(C)c1	13
CCN(CC(=O)Nc1c(F)cccc1F)C(=O)c1ccc(C2SCCS2)cc1	13.2
CC1(C)CC(=O)C2=C(C1)NC(SCC(=O)Nc1ccccc1)=C(C#N)C21CCCCC1	-0.842
O=C(Nc1ccc2c(c1)OCCO2)C1CC(O)CN1C(=O)Nc1ccccc1 (centres unmarked)	11.3

From article PMC4336329 (PLoS ONE, 2015)
